Where “and” joins values, the source holds several entries; their conditions need not be identical. Equal entries are not always repeated. Where two headings read alike, the source gives them in different places.
Columns and labels:
[1] = tested on: PF-7802-labelled proteins in ARPE-19 cells
[2] = target: PF-7802-labelled proteins in ARPE-19 cells (Homo sapiens, UniProt P05556)
[3] = target: PF-7802-labelled proteins in ARPE-19 cells (Homo sapiens, UniProt Q9Y639); details: protein NPTN Neuroplastin (Q9Y639); replicates in separate columns
[4] = target: PF-7802-labelled proteins in ARPE-19 cells (Homo sapiens, UniProt P07437)
UniProt P07437, sequence (P07437 whole entry): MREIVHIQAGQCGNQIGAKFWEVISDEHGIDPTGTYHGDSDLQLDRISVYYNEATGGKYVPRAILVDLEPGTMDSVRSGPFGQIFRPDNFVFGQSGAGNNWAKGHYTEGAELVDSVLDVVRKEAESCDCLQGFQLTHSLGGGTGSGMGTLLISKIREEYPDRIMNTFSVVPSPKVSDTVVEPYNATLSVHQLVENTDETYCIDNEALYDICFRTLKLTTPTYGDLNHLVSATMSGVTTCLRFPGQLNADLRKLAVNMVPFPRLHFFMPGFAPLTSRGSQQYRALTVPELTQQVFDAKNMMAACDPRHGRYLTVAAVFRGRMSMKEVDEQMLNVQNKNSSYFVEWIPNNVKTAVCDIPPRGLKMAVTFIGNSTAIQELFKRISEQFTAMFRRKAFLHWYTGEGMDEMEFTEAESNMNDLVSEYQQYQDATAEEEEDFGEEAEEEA

[5] = target: PF-7802-labelled proteins in ARPE-19 cells (Homo sapiens, UniProt P27816); details: protein MAP4 Microtubule-associated protein 4 (P27816); replicates in separate columns
UniProt P27816, sequence (P27816 whole entry): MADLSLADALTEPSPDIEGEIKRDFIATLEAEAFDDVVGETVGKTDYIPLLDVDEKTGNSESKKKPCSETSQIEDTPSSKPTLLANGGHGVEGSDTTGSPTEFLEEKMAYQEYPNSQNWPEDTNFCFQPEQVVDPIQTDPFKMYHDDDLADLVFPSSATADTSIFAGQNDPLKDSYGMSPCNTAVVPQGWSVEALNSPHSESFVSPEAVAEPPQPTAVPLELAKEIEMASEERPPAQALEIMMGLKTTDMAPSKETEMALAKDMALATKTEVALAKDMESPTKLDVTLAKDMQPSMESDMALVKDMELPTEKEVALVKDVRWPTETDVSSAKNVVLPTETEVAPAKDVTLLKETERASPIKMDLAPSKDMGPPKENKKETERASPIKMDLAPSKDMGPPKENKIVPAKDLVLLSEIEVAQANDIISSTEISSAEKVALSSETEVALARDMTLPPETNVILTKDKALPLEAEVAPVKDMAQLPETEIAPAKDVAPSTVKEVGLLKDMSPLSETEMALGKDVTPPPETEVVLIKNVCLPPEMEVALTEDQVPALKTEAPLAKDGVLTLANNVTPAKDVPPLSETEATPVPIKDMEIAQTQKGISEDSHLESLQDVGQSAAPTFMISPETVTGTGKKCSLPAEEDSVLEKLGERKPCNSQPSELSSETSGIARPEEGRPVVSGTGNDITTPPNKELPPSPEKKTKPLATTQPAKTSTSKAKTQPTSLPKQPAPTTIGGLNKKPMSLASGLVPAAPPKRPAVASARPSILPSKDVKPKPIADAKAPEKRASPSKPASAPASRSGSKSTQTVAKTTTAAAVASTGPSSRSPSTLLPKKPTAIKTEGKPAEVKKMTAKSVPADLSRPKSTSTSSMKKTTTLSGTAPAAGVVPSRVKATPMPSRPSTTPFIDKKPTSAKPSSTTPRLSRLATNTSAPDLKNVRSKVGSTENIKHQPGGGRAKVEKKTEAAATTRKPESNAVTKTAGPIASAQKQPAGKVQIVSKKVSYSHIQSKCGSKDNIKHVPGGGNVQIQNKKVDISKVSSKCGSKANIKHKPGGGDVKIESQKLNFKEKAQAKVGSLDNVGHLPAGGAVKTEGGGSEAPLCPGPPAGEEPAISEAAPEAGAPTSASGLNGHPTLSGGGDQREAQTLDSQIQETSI

[6] = target: PF-7802-labelled proteins in ARPE-19 cells (Homo sapiens, UniProt P09651)
UniProt P09651, sequence (P09651 whole entry): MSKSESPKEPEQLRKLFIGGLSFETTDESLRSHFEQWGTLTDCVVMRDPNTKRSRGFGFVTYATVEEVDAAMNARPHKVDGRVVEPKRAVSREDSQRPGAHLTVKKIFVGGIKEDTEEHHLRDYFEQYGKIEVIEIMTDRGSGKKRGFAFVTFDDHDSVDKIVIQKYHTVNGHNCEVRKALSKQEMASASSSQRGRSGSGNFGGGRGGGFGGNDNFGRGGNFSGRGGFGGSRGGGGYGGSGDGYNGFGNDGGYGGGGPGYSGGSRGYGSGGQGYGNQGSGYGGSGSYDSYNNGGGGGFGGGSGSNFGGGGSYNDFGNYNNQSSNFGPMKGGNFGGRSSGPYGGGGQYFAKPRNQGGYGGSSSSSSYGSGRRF

[7] = target: PF-7802-labelled proteins in ARPE-19 cells (Homo sapiens, UniProt O00469)
[8] = target: PF-7802-labelled proteins in ARPE-19 cells (Homo sapiens, UniProt P26373); details: protein RPL13 60S ribosomal protein L13, P26373
[9] = target: PF-7802-labelled proteins in ARPE-19 cells (Homo sapiens, UniProt P62424); details: protein RPL7A 60S ribosomal protein L7a, P62424
[10] = target: PF-7802-labelled proteins in ARPE-19 cells (Homo sapiens, UniProt P32322); details: protein PYCR1 Pyrroline-5-carboxylate reductase 1, mitochondrial, P32322
UniProt P32322, sequence (P32322 whole entry): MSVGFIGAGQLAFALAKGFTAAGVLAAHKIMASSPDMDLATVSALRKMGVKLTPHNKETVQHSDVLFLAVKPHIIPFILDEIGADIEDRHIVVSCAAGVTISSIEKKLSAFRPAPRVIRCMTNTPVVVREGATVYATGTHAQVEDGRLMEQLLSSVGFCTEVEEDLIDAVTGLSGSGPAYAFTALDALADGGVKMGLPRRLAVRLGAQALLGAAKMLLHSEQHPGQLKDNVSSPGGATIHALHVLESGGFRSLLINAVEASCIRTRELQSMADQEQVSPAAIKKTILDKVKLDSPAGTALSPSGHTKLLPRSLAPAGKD

[11] = target: PF-7802-labelled proteins in ARPE-19 cells (Homo sapiens, UniProt P07355)
UniProt P07355, sequence (P07355 whole entry): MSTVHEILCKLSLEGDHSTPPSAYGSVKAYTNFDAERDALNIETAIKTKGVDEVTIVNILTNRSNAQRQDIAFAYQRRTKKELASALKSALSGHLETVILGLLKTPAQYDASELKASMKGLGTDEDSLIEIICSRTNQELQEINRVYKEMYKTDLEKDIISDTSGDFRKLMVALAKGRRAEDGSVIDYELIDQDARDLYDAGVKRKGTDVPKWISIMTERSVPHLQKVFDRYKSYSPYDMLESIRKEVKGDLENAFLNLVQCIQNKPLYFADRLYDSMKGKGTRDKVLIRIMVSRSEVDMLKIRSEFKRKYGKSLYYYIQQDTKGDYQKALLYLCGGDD

[12] = target: PF-7802-labelled proteins in ARPE-19 cells (Homo sapiens, UniProt Q6P2Q9); details: protein PRPF8 Pre-mRNA-processing-splicing factor 8, Q6P2Q9
[13] = target: PF-7802-labelled proteins in ARPE-19 cells (Homo sapiens, UniProt Q99623); details: protein PHB2 Prohibitin-2 (Q99623); replicates in separate columns
UniProt Q99623, sequence (Q99623 whole entry): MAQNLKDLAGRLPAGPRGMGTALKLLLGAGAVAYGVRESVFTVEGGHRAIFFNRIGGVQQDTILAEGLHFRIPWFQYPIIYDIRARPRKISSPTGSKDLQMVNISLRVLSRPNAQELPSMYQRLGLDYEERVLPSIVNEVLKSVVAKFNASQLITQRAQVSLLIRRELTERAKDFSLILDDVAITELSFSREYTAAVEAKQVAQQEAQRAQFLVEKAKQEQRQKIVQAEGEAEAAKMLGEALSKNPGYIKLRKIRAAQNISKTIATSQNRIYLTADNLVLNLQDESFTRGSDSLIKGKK

[14] = target: PF-7802-labelled proteins in ARPE-19 cells (Homo sapiens, UniProt Q06830); details: protein PRDX1 Peroxiredoxin-1, Q06830
UniProt Q06830, sequence (Q06830 whole entry): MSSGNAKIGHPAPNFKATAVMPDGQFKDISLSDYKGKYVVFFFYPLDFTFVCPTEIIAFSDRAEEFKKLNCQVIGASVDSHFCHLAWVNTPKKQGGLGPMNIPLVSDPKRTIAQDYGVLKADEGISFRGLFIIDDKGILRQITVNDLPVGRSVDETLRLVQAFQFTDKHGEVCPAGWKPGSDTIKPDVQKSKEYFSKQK

[15] = target: PF-7802-labelled proteins in ARPE-19 cells (Homo sapiens, UniProt O75367); details: O75367 H2AFY Core histone macro-H2A.1
UniProt O75367, sequence (O75367 whole entry): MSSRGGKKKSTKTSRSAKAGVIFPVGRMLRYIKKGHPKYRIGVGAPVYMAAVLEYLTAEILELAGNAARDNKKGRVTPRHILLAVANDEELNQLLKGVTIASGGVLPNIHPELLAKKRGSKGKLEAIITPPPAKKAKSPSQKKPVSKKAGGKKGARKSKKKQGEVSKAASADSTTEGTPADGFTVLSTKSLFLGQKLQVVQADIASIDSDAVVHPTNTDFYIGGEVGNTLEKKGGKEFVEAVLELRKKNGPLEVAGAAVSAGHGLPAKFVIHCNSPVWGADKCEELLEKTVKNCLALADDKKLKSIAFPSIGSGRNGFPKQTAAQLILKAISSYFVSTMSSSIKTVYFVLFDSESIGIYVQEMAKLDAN

[16] = target: PF-7802-labelled proteins in ARPE-19 cells (Homo sapiens, UniProt P47985); details: UQCRFS1 Cytochrome b-c1 complex subunit Rieske, mitochondrial (P47985)
UniProt P47985, sequence (P47985 whole entry): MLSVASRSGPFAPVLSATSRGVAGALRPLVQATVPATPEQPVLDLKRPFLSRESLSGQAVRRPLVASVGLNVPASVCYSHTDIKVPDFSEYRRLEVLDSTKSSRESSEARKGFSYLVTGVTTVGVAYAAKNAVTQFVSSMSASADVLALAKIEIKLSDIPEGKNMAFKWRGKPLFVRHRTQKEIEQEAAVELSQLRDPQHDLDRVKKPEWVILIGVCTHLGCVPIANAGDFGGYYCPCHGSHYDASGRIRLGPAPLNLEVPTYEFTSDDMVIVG

[17] = target: PF-7802-labelled proteins in ARPE-19 cells (Homo sapiens, UniProt P36542); details: protein ATP5C1 ATP synthase subunit gamma, mitochondrial (P36542)
[18] = target: PF-7802-labelled proteins in ARPE-19 cells (Homo sapiens, UniProt Q13492); details: protein PICALM Phosphatidylinositol-binding clathrin assembly protein (Q13492); replicates in separate columns
UniProt Q13492, sequence (Q13492 whole entry): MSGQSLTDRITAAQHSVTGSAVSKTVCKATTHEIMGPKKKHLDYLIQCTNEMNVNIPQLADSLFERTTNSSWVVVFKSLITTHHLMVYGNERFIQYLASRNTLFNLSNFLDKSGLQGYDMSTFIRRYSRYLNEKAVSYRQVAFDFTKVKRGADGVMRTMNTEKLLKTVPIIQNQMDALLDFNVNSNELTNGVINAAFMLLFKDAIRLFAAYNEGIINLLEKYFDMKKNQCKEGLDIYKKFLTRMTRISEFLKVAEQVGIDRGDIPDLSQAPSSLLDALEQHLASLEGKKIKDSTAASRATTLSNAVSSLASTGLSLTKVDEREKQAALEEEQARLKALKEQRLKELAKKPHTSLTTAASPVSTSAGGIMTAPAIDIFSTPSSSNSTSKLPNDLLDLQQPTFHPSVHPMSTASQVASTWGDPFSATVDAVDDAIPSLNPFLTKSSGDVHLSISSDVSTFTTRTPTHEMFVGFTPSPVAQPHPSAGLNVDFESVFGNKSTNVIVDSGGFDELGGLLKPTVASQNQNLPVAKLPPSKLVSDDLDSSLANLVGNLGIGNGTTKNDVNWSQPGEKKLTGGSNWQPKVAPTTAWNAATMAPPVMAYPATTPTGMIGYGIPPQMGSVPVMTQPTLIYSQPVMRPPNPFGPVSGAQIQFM

CNC1CCN(C(=O)C[C@@H](Cc2ccccc2)C(=O)N[C@@H](CSC)C(=O)N[C@@H](CC2CCCCC2)[C@@H](O)C(=O)OC(C)C)CC1 [CP-108671, reference compound]
SILAC ratio (DMSO/CP-108671) ([1]; P10319 HLA-B HLA class I histocompatibility antigen, B-58 alpha chain): 0.79 | SILAC ratio (DMSO/CP-108671) ([1]; P18464 HLA-B HLA class I histocompatibility antigen, B-51 alpha chain): 0.79 | SILAC ratio (DMSO/CP-108671) ([1]; P18465 HLA-B HLA class I histocompatibility antigen, B-57 alpha chain): 0.79 | SILAC ratio (DMSO/CP-108671) ([1]; P30484 HLA-B HLA class I histocompatibility antigen, B-46 alpha chain): 0.79 | SILAC ratio (DMSO/CP-108671) ([1]; P30492 HLA-B HLA class I histocompatibility antigen, B-54 alpha chain): 0.79 | SILAC ratio (DMSO/CP-108671) ([1]; P30504 HLA-C HLA class I histocompatibility antigen, Cw-4 alpha chain): 0.79 | SILAC ratio (DMSO/CP-108671) ([1]; P30510 HLA-C HLA class I histocompatibility antigen, Cw-14 alpha chain): 0.79 | SILAC ratio (DMSO/CP-108671) ([1]; P30685 HLA-B HLA class I histocompatibility antigen, B-35 alpha chain): 0.79 | Median SILAC Ratio (Heavy/Light) ([1]; UBBP4 Protein UBBP4 (J3QRK5)): 1.414 and 1.581 | Median SILAC Ratio (Heavy/Light) ([1]; Uncharacterized protein (D6R9H1)): 1.392 | Median SILAC Ratio (Heavy/Light) ([1]; Uncharacterized protein (J3QS99)): 1.406 | Median SILAC Ratio (Heavy/Light) ([1]; protein HLA-A HLA class I histocompatibility antigen, A-2 alpha chain (P01892), one column per replicate): 1.404 | Median SILAC Ratio (Heavy/Light) ([1]; protein HLA-B HLA class I histocompatibility antigen, B-8 alpha chain (P30460), one column per replicate): 1.249 | Median SILAC Ratio (Heavy/Light) ([1]; protein HLA-B HLA class I histocompatibility antigen, B-14 alpha chain (P30462), one column per replicate): 1.249 | Median SILAC Ratio (Heavy/Light) ([1]; protein HLA-B HLA class I histocompatibility antigen, B-35 alpha chain (P30685), one column per replicate): 1.264 | Median SILAC Ratio (Heavy/Light) ([1]; protein HLA-B HLA class I histocompatibility antigen, B-37 alpha chain (P18463), one column per replicate): 1.249 | Median SILAC Ratio (Heavy/Light) ([1]; protein HLA-B HLA class I histocompatibility antigen, B-38 alpha chain (Q95365), one column per replicate): 1.249 | Median SILAC Ratio (Heavy/Light) ([1]; protein HLA-B HLA class I histocompatibility antigen, B-46 alpha chain (P30484), one column per replicate): 1.264 | Median SILAC Ratio (Heavy/Light) ([1]; protein HLA-B HLA class I histocompatibility antigen, B-51 alpha chain (P18464), one column per replicate): 1.264 | Median SILAC Ratio (Heavy/Light) ([1]; protein HLA-B HLA class I histocompatibility antigen, B-54 alpha chain (P30492), one column per replicate): 1.264 | Median SILAC Ratio (Heavy/Light) ([1]; protein HLA-B HLA class I histocompatibility antigen, B-57 alpha chain (P18465), one column per replicate): 1.264 | Median SILAC Ratio (Heavy/Light) ([1]; protein HLA-B HLA class I histocompatibility antigen, B-58 alpha chain (P10319), one column per replicate): 1.264 | Median SILAC Ratio (Heavy/Light) ([1]; protein HLA-B HLA class I histocompatibility antigen, B-59 alpha chain (Q29940), one column per replicate): 1.264 | Median SILAC Ratio (Heavy/Light) ([1]; protein HLA-B HLA class I histocompatibility antigen, B-67 alpha chain (Q29836), one column per replicate): 1.249 | Median SILAC Ratio (Heavy/Light) ([1]; protein HLA-B HLA class I histocompatibility antigen, B-82 alpha chain (Q29718), one column per replicate): 1.249 | Median SILAC Ratio (Heavy/Light) ([1]; protein HLA-C HLA class I histocompatibility antigen, Cw-4 alpha chain (P30504), one column per replicate): 1.264 | Median SILAC Ratio (Heavy/Light) ([1]; protein HLA-C HLA class I histocompatibility antigen, Cw-14 alpha chain (F8VZB9), one column per replicate): 1.094 | Median SILAC Ratio (Heavy/Light) ([1]; protein HLA-C HLA class I histocompatibility antigen, Cw-14 alpha chain (P30510), one column per replicate): 1.264 | Median SILAC Ratio (Heavy/Light) ([1]; protein HLA-C HLA class I histocompatibility antigen, Cw-17 alpha chain (Q95604), one column per replicate): 1.404 | Median SILAC Ratio (Heavy/Light) ([1]; protein HLA-C HLA class I histocompatibility antigen, Cw-18 alpha chain (Q29865), one column per replicate): 1.179 | Median SILAC Ratio (Heavy/Light) ([1]; protein LOC440131 Similar to bA90M5.1 (Novel protein) (Q5TAE0), replicates in separate columns): 0.5915 | SILAC ratio (DMSO/CP-108671) ([2]; P05556 ITGB1 Integrin beta-1): 0.89 | Median SILAC Ratio (Heavy/Light) ([2]; protein ITGB1 Integrin beta-1 (P05556), one column per replicate): 1.128 | Median SILAC Ratio (Heavy/Light) [3]: 1.109 | SILAC ratio (DMSO/CP-108671) ([4]; P07437 TUBB Tubulin beta chain): 0.42 | Median SILAC Ratio (Heavy/Light) ([4]; TUBB Tubulin beta chain (P07437)): 2.354 and 1.333 | Median SILAC Ratio (Heavy/Light) [5]: 1.791 | SILAC ratio (DMSO/CP-108671) ([6]; P09651 HNRNPA1 Heterogeneous nuclear ribonucleoprotein A1): 0.88 | Median SILAC Ratio (Heavy/Light) ([6]; protein HNRNPA1 Heterogeneous nuclear ribonucleoprotein A1 (P09651), one column per replicate): 1.142 and 0.9281 | SILAC ratio (DMSO/CP-108671) ([7]; O00469 PLOD2 Procollagen-lysine,2-oxoglutarate 5-dioxygenase 2): 0.89 | Median SILAC Ratio (Heavy/Light) ([7]; protein PLOD2 Procollagen-lysine,2-oxoglutarate 5-dioxygenase 2 (O00469), replicates in separate columns): 1.122 | Median SILAC Ratio (Heavy/Light) [8]: 1.51 | Median SILAC Ratio (Heavy/Light) [9]: 1.406 | Median SILAC Ratio (Heavy/Light) [10]: 0.367 | SILAC ratio (DMSO/CP-108671) ([11]; P07355 ANXA2 Annexin A2): 0.82 | Median SILAC Ratio (Heavy/Light) ([11]; protein ANXA2 Annexin A2 (P07355)): 1.239 and 1.115 | Median SILAC Ratio (Heavy/Light) [12]: 1.177 | Median SILAC Ratio (Heavy/Light) [13]: 2.256 | Median SILAC Ratio (Heavy/Light) [14]: 2.139 | SILAC ratio (DMSO/CP-108671) [15]: 0.88

Cc1cc([C@H]2C[C@H]3[C@@H](C)SC(N)=N[C@@]3(c3ccc(F)cc3F)CO2)on1 [PF-9283]
Median SILAC Ratio (Heavy/Light) [16]: 0.7276 | Median SILAC Ratio (Heavy/Light) [17]: 1.273 | Median SILAC Ratio (Heavy/Light) [18]: 1.395 and 0.621

Reference: publication PMC5062570 (Nature Communications, 2016)
